Source: the supplement of paper PMC3334620
Over roughly 33,000 sequences, “E-score (-0.5 to 0.5)” has its median near -0.032; the highest 2% begin near 0.36. This is one part of the list.

These sequences were tested against T1, Sko1 (UniProt Q02100) (assay: PBM E-score (8-mer binding enrichment) (E-score (-0.5 to 0.5)); higher = stronger / more preferred TF binding; most listed sequences are background and not binding sites). Conditions: protein concentration: 200 nM; construct: GST-full length.
T1 sequence: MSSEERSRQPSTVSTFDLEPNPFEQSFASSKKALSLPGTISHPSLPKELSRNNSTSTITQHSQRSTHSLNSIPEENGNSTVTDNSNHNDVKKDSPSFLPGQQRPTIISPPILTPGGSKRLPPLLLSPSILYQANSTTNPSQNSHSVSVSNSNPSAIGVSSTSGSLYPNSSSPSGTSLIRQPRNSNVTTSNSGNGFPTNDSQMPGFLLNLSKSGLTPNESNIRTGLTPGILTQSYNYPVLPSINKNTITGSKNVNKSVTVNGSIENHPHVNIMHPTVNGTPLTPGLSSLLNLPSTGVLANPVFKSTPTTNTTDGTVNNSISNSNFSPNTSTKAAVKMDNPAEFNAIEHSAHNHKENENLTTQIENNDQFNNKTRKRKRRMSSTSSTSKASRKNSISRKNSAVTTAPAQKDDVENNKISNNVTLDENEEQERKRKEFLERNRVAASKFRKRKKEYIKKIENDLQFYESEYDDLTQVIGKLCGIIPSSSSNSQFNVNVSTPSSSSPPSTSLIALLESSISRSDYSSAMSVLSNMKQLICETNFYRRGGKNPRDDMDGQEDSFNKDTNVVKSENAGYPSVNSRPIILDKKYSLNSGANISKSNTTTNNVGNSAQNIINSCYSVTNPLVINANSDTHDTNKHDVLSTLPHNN
Method in brief: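 Bound GST-tagged yeast transcription factors, applied at about 100-200 nM to double-stranded universal all-10-mer Agilent arrays, were detected with fluorescent anti-GST. Scans were normalised with masliner. A modified Wilcoxon-Mann-Whitney statistic, the E-score, was assigned to each ungapped eight-base word pooled with its reverse complement by the Universal PBM Analysis Suite.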

Sequence	PBM E-score
ATGGACTC	-0.147
GGCCTGCA	-0.325
ATACTTAG	-0.0209
AGTTTTCG	0.0459
GGGGCAAC	-0.149
CCCTCATA	-0.212
GCATGGGC	-0.189
ATTTCTGA	-0.108
TACCACCA	-0.0735
CTAAACGC	0.0759
AAGCCCCC	-0.439
ACCGTAAC	-0.135
AGACTAAC	-0.0356
CGGACCAA	-0.0377
GGGAGTTA	-0.113
CGGGTCTC	-0.283
AACCAGAT	-0.071
GTTTCTGA	0.122
TGCTCGAA	0.063
CCCTAAAC	-0.0916
CGCGAGCA	-0.197
ATAGAATG	0.121
ACCTATCC	-0.141
CATGACTA	0.0134
AATTAATG	0.188

Sequence	PBM E-score
AAATTTTC	0.067
CCTGTTCA	-0.203
ACTTGTGG	-0.0685
CACTTAGC	-0.179
CCCACAAG	-0.155
CAAGGAGC	-0.0662
AAGGATCG	0.0147
CTGCTACA	-0.0447
CGCGGAGA	-0.0338
AAATGACA	0.272
ATTCCTGA	-0.0957
TCGACTAA	0.0754
CCGTGTCA	-0.186
CAAACTTC	0.116
AGGTACTA	0.0453
CCCTGGGC	-0.174
TCGAGACA	0.00957
CCGGGGCC	-0.368
CCCCCCCC	-0.46
AAAACAGC	-0.0494
ATATCCGA	0.0954
AGTATCCG	-0.131
ACGGAGTC	-0.0548
CCCCGGTA	-0.165
CACCCCCC	-0.364

Sequence	PBM E-score
TGTCGCAA	0.0467
AACCCTAG	0.0089
CACGGACC	-0.209
GTCCGATA	-0.0335
CCGTAGTC	-0.266
GAGGACGC	-0.319
GAATGAGC	0.0937
GAGCTGGC	-0.222
ATTGTGGC	-0.0131
AAACCTCA	-0.043
AAACGACC	-0.142
ACACAGGA	-0.128
CGTCCAGC	-0.0938
GCATGAGC	-0.136
GCTCCAAA	-0.161
ATCCTATG	-0.0706
AACGAGCA	-0.13
ATTAATAA	0.168
ATCTCCGG	-0.165
TGAGGGAA	-0.0846
ATTTAAGG	0.148
AATCATGG	-0.0769
AATAGTCA	0.00533
AGCAGGCC	-0.239
CTACGCTA	0.076

Sequence	PBM E-score
AACGTCTC	0.111
ATTTCTGG	-0.0124
ATCTCGAA	0.0474
GGAGGATA	-0.14
CTGTGAGC	0.0825
TACACGTA	0.453
CGTCATCA	0.489
CCCTACAC	-0.0471
AATGAGGT	0.324
CAACGCAC	0.173
ATAATAGC	0.0417
CTAGTCTC	-0.0396
ACGTGAAC	0.311
CGTGGAAC	-0.0617
ATTGTGGA	0.0573
CCATTCAG	0.0407
CAGATGCC	-0.0631
GACGGGGA	-0.183
CGCGGGCC	-0.115
ATGTAGTC	0.107
CACTACAG	0.0339
CGGAGTAC	-0.316
GGTAACCA	-0.101
GCTTTGAA	-0.0773
TGATCCCA	-0.103

Sequence	PBM E-score
AAAAGCCA	-0.0529
CCCGTGAG	-0.124
CCCGCAGG	-0.274
TAGTACAA	-0.00782
CACTTCTA	-0.189
AAGAACGA	0.0924
CTGATCAC	-0.0249
CGCACTTA	0.0851
TCGGTACA	0.117
ACGTCAGG	0.457
CATCGGGG	-0.219
AAAGGCTG	-0.182
AGGTCCTA	-0.137
GCTTGGTA	0.0615
CATGGTAC	-0.0945
GGATGGGA	-0.267
ACGTCAAG	0.444
AAGGCACA	-0.107
GGTCATAA	0.138
AGTGCCCC	-0.151
CATCGAGG	-0.0869
GTGCTCAA	0.198
CCTCCCCC	-0.23
TAGGGTAA	0.00468
ACGTGAAA	0.386

Sequence	PBM E-score
ATCATGAT	0.254
CGCCATTC	0.0122
ACCCACTA	-0.00296
GGCGCGAC	-0.121
AGAAAGTA	0.135
CCGTGCAC	-0.089
AAATGCCA	-0.0103
ACGTGTAA	0.386
AAGCGCAG	-0.17
ATCCTCCC	-0.127
CATTACCA	0.0577
AGGCGGGG	-0.239
CAAGGACC	-0.204
CCTTACTA	0.0289
ACACTGTA	-0.0731
TCTCTCCA	-0.0408
TCCCAGAA	-0.185
ATTATTTA	0.266
ATATTCGA	-0.0363
AGCGTACC	-0.0829
CCCGAATC	-0.275
GTATGCGA	0.148
TCGCCTCA	-0.0924
AATCAATC	0.0884
CTCCGTTA	-0.117

Sequence	PBM E-score
GATGTTAA	0.155
ACAGATAA	0.0507
TGAGCACA	0.131
CAATTCAC	0.049
CCTCACGC	0.0875
ACGTACCT	0.377
CCCCGACA	-0.11
AATTCCGT	0.205
ACGCATGA	0.292
CGGTGCAA	-0.251
CTCACCAG	-0.0682
ACCAAGTC	-0.0998
TGCCGCAA	0.0562
TATGAGAA	0.07
AGGAACAT	0.176
AGAAACTA	0.0178
CTCAGCTA	-0.166
GATCAATA	0.157
CAAGTAGC	0.0226
ATAATTCG	0.221
CGTCCACG	0.239
AGCTTTTA	0.167
